We go through 2 molecules from patent US20120165265A1 (published 2012).

One experiment concerns the target T1, EE-Orai1-His8 (UniProt Q96D31 1-301, glycosylated and unglycosylated forms).
T1 construct: Purified from Hi5 insect cells in DDM; also called Orai1 protein containing C-terminal octa-histidine and N-terminal EEYMPME (EE) tags; not shown: C-terminal His8 (octa-histidine) tag
Description: GST pull-down with purified proteins. How it is done: GST Pull-down Assays. For GST pull-down assays, either GST-CAD (0.16 μM) or GST (0.15 μM) was incubated with EE-Orai1-His8 (0.1 μM) for 1 h in buffer containing (in mM): 20 Tris-HCl (pH 8.0), 150 NaCl, 20 imidazole, and 1 DTT with protease inhibitors. After addition of glutathione sepharose the beads were centrifuged, washed with the above buffer, and the precipitated proteins were eluted with boiling SDS and analyzed by SDS-PAGE and Western blotting.

For the next experiment, the target named is T2, myc-Orai1 (UniProt Q96D31 1-301).
T2 construct: also called N-terminally myc-tagged WT Orai1; not shown: N-terminal myc tag
Description: fluorescence localisation in HEK 293 cells. How it is done: Confocal Microscopy. 6 h after transfection, HEK 293 cells were plated onto sterilized coverslips coated with poly-D-lysine and maintained in complete DMEM for an additional 12-18 h before imaging in Ringer's solution containing (in mM): 155 NaCl, 4.5 KCl, 2 CaCl2, 1 MgCl2, 10 D-glucose, and 5 Na-Hepes, pH 7.4. To deplete stores, cells were treated with 1 μM TG in Ca2+-free Ringer's (prepared by substituting 2 mM MgCl2 and 1 mM EGTA for CaCl2) for 10 min. eGFP and mCherry were excited simultaneously at 488 and 594 nm, respectively, on a Leica SP2 AOBS inverted confocal microscope equipped with a PL APO 100×/NA 1.4 oil immersion objective. Fluorescence emissions were collected at 615-840 nm (mCherry) and 510-570 nm (eGFP). All experiments were performed at 22-25° C.
CAD Associates with Orai1 in vivo and in vitro. Because cytosolic CAD is a potent activator of Orai1 channels and is not associated with the ER, we hypothesized that CAD binds to Orai1. To test this idea, we first expressed YFP-CAD with or without myc-Orai1 in HEK 293 cells and examined its intracellular localization. […] GFP-myc-Orai1 was detected in the immunoprecipitates from cells co-expressing CAD and Orai1 but not from cells expressing CAD or Orai1 alone (FIG. 3B).

Sequence of myc-Orai1 (Q96D31 whole entry): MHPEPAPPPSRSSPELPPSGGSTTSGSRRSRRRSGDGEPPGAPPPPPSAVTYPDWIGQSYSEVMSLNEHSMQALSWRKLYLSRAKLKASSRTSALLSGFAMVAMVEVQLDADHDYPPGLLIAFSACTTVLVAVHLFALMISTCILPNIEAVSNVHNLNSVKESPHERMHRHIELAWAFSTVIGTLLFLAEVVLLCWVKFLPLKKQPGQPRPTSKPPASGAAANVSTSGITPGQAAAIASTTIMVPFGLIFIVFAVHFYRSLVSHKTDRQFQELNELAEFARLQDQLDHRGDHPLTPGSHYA
Sequence of EE-Orai1-His8 (Q96D31 other isoform, or with tags, fused parts or gaps limits assumed): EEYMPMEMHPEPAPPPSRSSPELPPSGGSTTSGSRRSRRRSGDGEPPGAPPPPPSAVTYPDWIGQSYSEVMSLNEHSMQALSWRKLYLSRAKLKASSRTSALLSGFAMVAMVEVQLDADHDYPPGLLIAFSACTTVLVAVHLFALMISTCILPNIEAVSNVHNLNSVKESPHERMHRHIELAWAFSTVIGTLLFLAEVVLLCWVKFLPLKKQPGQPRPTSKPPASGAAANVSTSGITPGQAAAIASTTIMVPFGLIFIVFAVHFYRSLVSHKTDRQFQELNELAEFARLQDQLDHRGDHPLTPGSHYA

B1: GST (other)
chain: not shown
notes: Negative control of the pull-down; also called GST alone
As for B1, the binding result with EE-Orai1-His8 is “no binding (tested: GST 0.15 µM with EE-Orai1-His8 0.1 µM)”.

B2: YFP-CAD (other)
chain: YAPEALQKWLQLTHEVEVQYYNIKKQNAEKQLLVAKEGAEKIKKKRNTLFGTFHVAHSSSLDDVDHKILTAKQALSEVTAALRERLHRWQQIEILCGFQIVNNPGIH
notes: not shown: YFP tag from vector pDS-YFP-X
For the molecule B2, in the experiment with myc-Orai1, the binding result is reported as “binds”.
